# Data published in the supplement of paper PMC9446081.
# The campaign covered roughly 39,000 compounds. About 220 (0.56%) showed activity. The list shows a part of the results.
# System: Escherichia coli K-12 BW25113
# Experiment: relative growth (OD600 normalised to plate interquartile mean) (fraction); higher = less growth inhibition, active = 0.2 or less
# Conditions: 50 µM; LB; incubation time: overnight (16-24 h)
# 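Note: static incubation at 37 °C against the wild-type strain, values averaged over two biological replicates.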
row,SMILES,relative growth
1,Cc1noc(C)c1S(=O)(=O)N(C)C[C@@H]1Oc2ccc(NC(=O)NC(C)C)cc2CC(=O)N([C@@H](C)CO)C[C@@H]1C,inactive: 1.01
2,Cc1noc(C)c1S(=O)(=O)N(C)C[C@H]1Oc2ccc(NC(=O)c3ccncc3)cc2CC(=O)N([C@H](C)CO)C[C@H]1C,inactive: 0.949
3,Cc1cc(=O)n2c(C)nnc2[nH]1,inactive: 0.991
4,C[C@@H]1CN([C@H](C)CO)C(=O)c2cc(NC(=O)Nc3ccc(F)cc3)ccc2O[C@@H](C)CCCCO[C@H]1CN(C)Cc1ccc(C(F)(F)F)cc1,inactive: 0.992
5,C[C@H](CO)N1C[C@H](C)[C@@H](CN(C)Cc2ccc(Cl)c(Cl)c2)Oc2ccc(NC(=O)Nc3ccccc3)cc2C1=O,inactive: 0.995
6,CC1OC(OCC2OC(Oc3c(-c4ccc(OCCO)c(OCCO)c4)oc4cc(OCCO)cc(O)c4c3=O)C(O)C(O)C2O)C(O)C(O)C1O (stereo not given),inactive: 1.05
7,CO[C@@H]1CN(C)C(=O)c2ccc(NC(=O)Nc3cccc(F)c3)cc2OC[C@@H](C)N(C(=O)Nc2c(C)noc2C)C[C@@H]1C,inactive: 0.977
8,C[C@H](CO)N1C[C@H](C)[C@H](CN(C)C(=O)Nc2ccc(F)cc2)OCCCC[C@H](C)Oc2ccc(NC(=O)C3CCC3)cc2C1=O,inactive: 0.996
9,Cc1ccc(S(=O)(=O)N(C)C[C@@H]2Oc3c(NC(=O)Nc4cccc5ccccc45)cccc3C(=O)N([C@H](C)CO)C[C@H]2C)cc1,inactive: 1.06
10,Cc1ccc(C(N)=S)c(=O)[nH]1,inactive: 1
11,COc1ccc(S(=O)(=O)N(C)C[C@@H]2Oc3c(cccc3N(C)C)C(=O)N([C@@H](C)CO)C[C@@H]2C)cc1,inactive: 0.895
12,Cc1noc(C)c1S(=O)(=O)N(C)C[C@@H]1Oc2ccc(NS(=O)(=O)c3ccc(Cl)cc3)cc2C(=O)N([C@H](C)CO)C[C@@H]1C,inactive: 1.01
13,COc1cccc(NC(=O)N(C)C[C@H]2OCc3ccccc3-c3c(n(C)c4ccccc34)C(=O)N([C@H](C)CO)C[C@@H]2C)c1,inactive: 0.974
14,C=CCOC(=O)[C@@H]1[C@H]2C(=O)O[C@H](c3ccccc3)[C@H](c3ccccc3)N2[C@H](c2ccc(OCCOC(=O)[C@@H]3C[C@@H]4C(=O)N5CCC[C@H]5C(=O)N4[C@@H]3c3ccc(O)cc3)cc2)[C@@]12C(=O)Nc1ccc(I)cc12,inactive: 1.05
15,CNC[C@@H](O)Cn1cc(C)c(C(C)=O)c1C,inactive: 0.984
16,C[C@@H]1CN([C@H](C)CO)C(=O)Cc2cc(NC(=O)c3ccncc3)ccc2O[C@@H]1CN(C)S(=O)(=O)c1ccccc1,inactive: 0.995
17,CN(C)CCNC(=O)[C@@H]1CCS(=O)(=O)[C@H]2CN(C(=O)Nc3ccccc3)C[C@@H]12,inactive: 1.01
18,C[C@@H]1CN([C@H](C)CO)C(=O)c2cc(-c3cccc(C#N)c3)cnc2O[C@H]1CN(C)C(=O)C1CCOCC1,inactive: 0.982
19,COc1ccc(S(=O)(=O)N(C)C[C@H]2OCCCC[C@@H](C)Oc3ccc(NC(=O)c4ccccc4)cc3C(=O)N([C@@H](C)CO)C[C@@H]2C)cc1,inactive: 1.02
20,O=C(C[C@@H]1C=C[C@@H](NC(=O)c2ccncc2)[C@@H](CO)O1)NCc1ccncn1,inactive: 0.994

row,SMILES,relative growth
1,Cc1nc(N)c(C(=O)O)nc1C,inactive: 1.03
2,C[C@H]1CN([C@@H](C)CO)C(=O)c2cc(/C=C/c3ccccc3)cnc2O[C@H]1CN(C)C(=O)C1CCOCC1,inactive: 1.01
3,CCN1[C@H](C(=O)NCCOC)[C@@H](CO)[C@@H]2Cn3c(ccc(-c4ccc(C(=O)N(C)C)cc4)c3=O)[C@@H]21,inactive: 1.03
4,CNC(=O)c1c(N)cnn1C,inactive: 0.93
5,Cc1ccc(S(=O)(=O)N(C)C[C@H]2OCCCC[C@H](C)Oc3ccc(NS(C)(=O)=O)cc3C(=O)N([C@@H](C)CO)C[C@@H]2C)cc1,inactive: 0.991
6,COc1cccc(OC)c1O,inactive: 1.08
7,C[C@@H]1CCCCO[C@H](CN(C)Cc2ccc(Cl)c(Cl)c2)[C@H](C)CN([C@@H](C)CO)C(=O)c2cc(NS(=O)(=O)c3ccccc3)ccc2O1,inactive: 1.02
8,COCC(=O)Nc1ccc2c(c1)C(=O)N(C)[C@@H]1CC[C@H](CC(=O)NCc3ccccc3Cl)O[C@@H]1CO2,inactive: 1.02
9,C[C@@H]1CN([C@H](C)CO)C(=O)CCCn2cc(nn2)CO[C@@H]1CN(C)C(=O)Nc1ccc(C(C)(C)C)cc1,inactive: 1.02
10,COCCNC(=O)C[C@@H]1CC[C@H]2[C@H](COc3ccc(NC(=O)Nc4cccc(F)c4)cc3C(=O)N2C)O1,inactive: 0.913
11,COc1ccccc1C#Cc1ccc2c(c1)O[C@@H](CN(C)Cc1ccncc1)[C@@H](C)CN([C@H](C)CO)S2(=O)=O,inactive: 1.01
12,C[C@@H]1CN([C@H](C)CO)C(=O)c2cccc(NS(=O)(=O)c3ccccc3)c2O[C@H]1CN(C)S(=O)(=O)c1cccs1,inactive: 1
13,CC(C)NC(=O)Nc1ccc2c(c1)C(=O)N([C@@H](C)CO)C[C@@H](C)[C@H](CN(C)C(=O)Nc1cccc3ccccc13)OCCCC[C@@H](C)O2,inactive: 1
14,COC(=O)C=CC(=O)OC,inactive: 1.08
15,O=C(C[C@H]1C[C@H]2c3cc(NS(=O)(=O)c4ccc(F)cc4)ccc3O[C@H]2[C@@H](CO)O1)N1CCOCC1,inactive: 1
16,C[C@@H]1CN([C@@H](C)CO)C(=O)c2c(c3ccccc3n2C)-c2ccccc2CO[C@@H]1CN(C)C(=O)Nc1ccc(-c2ccccc2)cc1,inactive: 1.05
17,C[C@H](CO)N1C[C@H](C)[C@@H](CN(C)Cc2ccc(C(F)(F)F)cc2)Oc2ccc(NC(=O)Cn3cnnn3)cc2CC1=O,inactive: 0.916
18,CCOc1cc2ncc(C#N)c(Nc3ccc(OCc4ccccn4)c(Cl)c3)c2cc1NC(=O)/C=C/[C@H]1CCCN1C,inactive: 0.991
19,C=Cn1cnc2c1c(=O)n(C)c(=O)n2C,inactive: 0.999
20,Cc1noc(C)c1NC(=O)Nc1ccc2c(c1)C(=O)N([C@H](C)CO)C[C@H](C)[C@@H](CN(C)C(=O)Nc1ccc(F)cc1)OCCCC[C@H](C)O2,inactive: 0.987
